Experimental data reported in PubChem BioAssay (Tox21).
This list was built around the results that the source calls inconclusive (neither active nor inactive); the mix of calls is not that of the screen. For some of these results: Potencies of inconclusive entries are doubtful fits and often do not repeat. Active and inactive are the calls of the source. Unless noted, calls follow the shape of the dose curve; as a rule, active = well fitted curve in the direction sought with a large enough effect in the repeat runs; inconclusive = weak or mixed curves; inactive = no such curve, though single readings can be large; an effect the other way counts as inactive or inconclusive.

What was measured:
[1] = qHTS assay for identifying genotoxic compounds that show differential cytotoxicity against isogenic chicken DT40 cell lines with known DNA damage response pathways - Rev3 mutant cell line (AID 743014); conditions: chicken DT40 Rev3-/- viability, CellTiter-Glo, 40 h; activity, negative = cytotoxicity: at 68.4 µM (top of the series) unless noted; also: nearly all actives have a fitted effect of over 55% in size
[2] = qHTS assay to identify small molecule antagonists of the estrogen receptor alpha (ER-alpha) signaling pathway - cell viability counter screen (AID 743074; calls by dose curve;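 also: HEK293 cells carrying ER-alpha-UAS-bla reporter stimulated with 17beta-estradiol; nearly all actives have a fitted effect of over 45% in size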)
[3] = target: Aryl hydrocarbon receptor (Homo sapiens) (UniProt P35869); assay: qHTS assay to identify small molecule that activate the aryl hydrocarbon receptor (AhR) signaling pathway (AID 743085); also: nearly all actives have a fitted effect of over 15% in size
UniProt P35869, sequence (P35869 whole entry, looked up): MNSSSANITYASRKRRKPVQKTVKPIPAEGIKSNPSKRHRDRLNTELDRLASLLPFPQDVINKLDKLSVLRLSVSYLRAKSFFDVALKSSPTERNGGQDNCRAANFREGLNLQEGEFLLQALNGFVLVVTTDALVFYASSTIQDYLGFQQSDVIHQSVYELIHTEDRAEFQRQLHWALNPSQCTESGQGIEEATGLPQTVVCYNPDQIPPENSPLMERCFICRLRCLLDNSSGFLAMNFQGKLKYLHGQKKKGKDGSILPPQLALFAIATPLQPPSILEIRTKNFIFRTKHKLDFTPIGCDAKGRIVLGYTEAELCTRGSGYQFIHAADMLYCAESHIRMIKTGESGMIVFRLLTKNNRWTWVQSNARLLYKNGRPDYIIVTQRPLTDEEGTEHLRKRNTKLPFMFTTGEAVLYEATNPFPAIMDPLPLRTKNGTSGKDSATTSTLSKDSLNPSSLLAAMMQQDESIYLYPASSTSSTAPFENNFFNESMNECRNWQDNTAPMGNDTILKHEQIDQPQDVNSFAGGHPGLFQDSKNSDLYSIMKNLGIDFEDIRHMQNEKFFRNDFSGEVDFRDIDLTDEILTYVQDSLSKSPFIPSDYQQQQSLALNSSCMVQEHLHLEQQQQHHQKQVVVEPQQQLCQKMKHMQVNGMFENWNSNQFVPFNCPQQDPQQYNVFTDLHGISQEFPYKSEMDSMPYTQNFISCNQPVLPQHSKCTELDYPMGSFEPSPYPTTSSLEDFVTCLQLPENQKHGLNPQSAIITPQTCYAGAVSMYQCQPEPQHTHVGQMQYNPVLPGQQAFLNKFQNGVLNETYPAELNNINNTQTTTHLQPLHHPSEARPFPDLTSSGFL
In short: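 A multiplexed format paired cell viability (CellTiter-Fluor fluorescence) with AhR-dependent luciferase output (ONE-Glo luminescence) in the same wells of HepG2 DRE-luc cells after 24 h compound exposure at 37C.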

[4] = target: Nuclear receptor subfamily 1 group I member 2 (Rattus norvegicus) (UniProt Q9R1A7); assay: Rat pregnane X receptor (rPXR) activation by small molecules, qHTS assay (AID 1346983); conditions: rPXR luciferase reporter cells, One-Glo luminescence, 24 h; max activation: active compounds read high; also: nearly all actives have a fitted effect of over 20% in size
UniProt Q9R1A7, sequence (Q9R1A7 whole entry, looked up): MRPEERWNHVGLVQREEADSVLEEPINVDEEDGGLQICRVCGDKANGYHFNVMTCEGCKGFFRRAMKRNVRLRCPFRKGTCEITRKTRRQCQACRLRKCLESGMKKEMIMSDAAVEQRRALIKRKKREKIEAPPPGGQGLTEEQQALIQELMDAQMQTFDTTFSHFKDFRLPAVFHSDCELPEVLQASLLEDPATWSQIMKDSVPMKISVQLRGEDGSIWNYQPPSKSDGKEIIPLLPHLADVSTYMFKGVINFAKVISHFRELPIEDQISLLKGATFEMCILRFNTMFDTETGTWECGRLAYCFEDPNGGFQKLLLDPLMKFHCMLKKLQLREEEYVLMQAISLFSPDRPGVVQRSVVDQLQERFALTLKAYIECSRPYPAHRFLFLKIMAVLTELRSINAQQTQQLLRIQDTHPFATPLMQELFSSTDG
In short: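 Cell-based rPXR luciferase reporter assay, 2,000 cells per well, rested 5hr at 37 C before compound addition in DMSO, then 24 hr at 37 C. One-Glo reagent was added and luminescence read after 30 min at room temperature.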

[5] = target: Nuclear receptor subfamily 1 group I member 2 (Homo sapiens) (UniProt O75469); assay: Human pregnane X receptor (PXR) activation by small molecules, qHTS assay (AID 1346985); also: nearly all actives have a fitted effect of over 40% in size
In short: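 DPX-2 cells (HepG2 co-transfected with a PXR response element and a CYP3A4-promoter luciferase construct) were seeded at 2,000 per well, rested 5 hr at 37C, then exposed to DMSO-dissolved compounds for 24 hr. Activation was read as luciferase luminescence.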

[6] = qHTS assay for small molecule agonists of the p53 signaling pathway (AID 651631; calls by dose curve; also: nearly all actives have a fitted effect of over 15% in size); conditions: HCT-116 p53RE-bla reporter, beta-lactamase FRET ratio, 16 h; activation: at 73.3 µM (top of the series) unless noted
In short: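 Testing took place in human colorectal HCT-116 cells with stable p53RE-driven beta-lactamase. After 16 h of compound exposure at 37 °C, a FRET substrate was added and fluorescence recorded 2 h later.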

[7] = qHTS assay for small molecules that induce genotoxicity in human embryonic kidney cells expressing luciferase-tagged ATAD5 (AID 651632); also: nearly all actives have a fitted effect of over 15% in size
In short: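 Increased luciferase signal from ATAD5-tagged reporter cells indicates DNA-damage-driven ATAD5 induction. HEK293T cells are treated for 16 hr at 37C before detection with Amplite.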

[8] = qHTS assay for small molecules that induce genotoxicity in human embryonic kidney cells expressing luciferase-tagged ATAD5 - cell viability (AID 651634; calls by dose curve; also: nearly all actives have a fitted effect of over 25% in size)
In short: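 Cytotoxicity counterscreen in HEK293T cells bearing an ATAD5-luciferase reporter: live-cell protease activity measured by CellTiter-Fluor fluorescence after 15.5 hr compound exposure.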

[9] = qHTS assay for small molecule disruptors of the mitochondrial membrane potential - cell viability (AID 720634; calls by dose curve; also: nearly all actives have a fitted effect of over 20% in size;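 as to activity change, negative = cytotoxicity: human HepG2 liver cancer cells; % is scaled to controls: 0 for no effect and ±100 for the full control effect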)
In short: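 After overnight attachment at 37 C, HepG2 cells received compound or DMSO vehicle for 1 hr. Viability is then taken from ATP-driven luminescence following a 30 min room-temperature CellTiter-Glo step.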

[10] = qHTS assay for small molecule disruptors of the mitochondrial membrane potential (AID 720635); conditions: HepG2 mitochondrial membrane potential, Mito-MPS dye ratio; ratio activity, negative = MMP loss: at 83.2 µM (top of the series) unless noted
In short: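 HepG2 cells (2,000/well) attached overnight at 37C, then took compound for 1 hr at 37C, 5% CO2. Mito-MPS dye was added for 30 min; fluorescence was read at 490/535 nm (monomers) and 540/590 nm (aggregates).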

[11] = target: Glucocorticoid receptor (Homo sapiens) (UniProt P04150); assay: qHTS assay to identify small molecule antagonists of the glucocorticoid receptor (GR) signaling pathway (AID 720692; active = well fitted inhibition curve with a large enough effect in the signal ratio in the repeat runs, not every such curve was filed as active; inconclusive = weak or mixed curves, or effect the other way; inactive = no such curve, though single readings can be large or run the other way; the % refers to the signal ratio; as to activity change, negative = inhibition: % is scaled to controls: 0 for no effect and ±100 for the full control effect); conditions: GR-bla HeLa, beta-lactamase FRET ratio, dexamethasone-stimulated, 18 h; activity change, negative = inhibition: at 58.5 µM (top of the series) unless noted
UniProt P04150, sequence (P04150 whole entry, looked up): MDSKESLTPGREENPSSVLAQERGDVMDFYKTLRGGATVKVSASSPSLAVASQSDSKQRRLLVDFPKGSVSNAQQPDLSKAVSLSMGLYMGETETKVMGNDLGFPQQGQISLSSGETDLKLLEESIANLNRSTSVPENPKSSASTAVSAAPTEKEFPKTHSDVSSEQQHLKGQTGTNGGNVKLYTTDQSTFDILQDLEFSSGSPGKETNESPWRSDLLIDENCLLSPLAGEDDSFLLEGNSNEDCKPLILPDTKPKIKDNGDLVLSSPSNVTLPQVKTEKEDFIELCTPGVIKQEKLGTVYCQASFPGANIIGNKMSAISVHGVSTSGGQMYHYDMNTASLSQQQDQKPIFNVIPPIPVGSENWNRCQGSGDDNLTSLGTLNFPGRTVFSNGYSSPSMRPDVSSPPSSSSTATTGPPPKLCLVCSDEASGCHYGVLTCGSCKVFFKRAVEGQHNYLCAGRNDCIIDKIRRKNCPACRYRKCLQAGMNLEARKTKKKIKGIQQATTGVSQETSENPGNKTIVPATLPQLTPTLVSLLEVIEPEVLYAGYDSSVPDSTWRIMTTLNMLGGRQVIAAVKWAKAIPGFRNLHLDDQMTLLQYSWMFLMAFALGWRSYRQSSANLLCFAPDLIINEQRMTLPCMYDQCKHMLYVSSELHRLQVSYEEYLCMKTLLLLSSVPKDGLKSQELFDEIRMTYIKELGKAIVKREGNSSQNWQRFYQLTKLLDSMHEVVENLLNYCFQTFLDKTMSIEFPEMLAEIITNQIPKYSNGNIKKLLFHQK
In short: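 Cells plated, rested 4 h at 37 C/5% CO2; compounds in DMSO pin-transferred; dexamethasone added to 5 nM final; 18 h at 37 C; B/G FRET substrate added, 2 h room temperature; fluorescence measured.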

[12] = qHTS assay to identify small molecule antagonists of the glucocorticoid receptor (GR) signaling pathway - cell viability counter screen (AID 720693); conditions: GR-bla HeLa viability, CellTiter-Glo luminescence, 18 h, with 5 nM dexamethasone present; viability change, negative = cytotoxic: at 58.5 µM (top of the series); also: nearly all actives have a fitted effect of over 55% in size
[13] = target: Androgen receptor (Homo sapiens) (UniProt P10275); assay: qHTS assay to identify small molecule agonists of the androgen receptor (AR) signaling pathway (AID 743036; active = well fitted activation curve with a large enough effect in the signal ratio in the repeat runs, with a control signal flat, not every such curve was filed as active; inconclusive = weak or mixed curves, or effect the other way; inactive = no such curve, though single readings can be large or run the other way; the % refers to the signal ratio); conditions: HEK293 AR-UAS-bla GripTite, beta-lactamase FRET ratio, 16 h; activation: at 62.4 µM (top of the series) unless noted
UniProt P10275, sequence (P10275 whole entry, looked up): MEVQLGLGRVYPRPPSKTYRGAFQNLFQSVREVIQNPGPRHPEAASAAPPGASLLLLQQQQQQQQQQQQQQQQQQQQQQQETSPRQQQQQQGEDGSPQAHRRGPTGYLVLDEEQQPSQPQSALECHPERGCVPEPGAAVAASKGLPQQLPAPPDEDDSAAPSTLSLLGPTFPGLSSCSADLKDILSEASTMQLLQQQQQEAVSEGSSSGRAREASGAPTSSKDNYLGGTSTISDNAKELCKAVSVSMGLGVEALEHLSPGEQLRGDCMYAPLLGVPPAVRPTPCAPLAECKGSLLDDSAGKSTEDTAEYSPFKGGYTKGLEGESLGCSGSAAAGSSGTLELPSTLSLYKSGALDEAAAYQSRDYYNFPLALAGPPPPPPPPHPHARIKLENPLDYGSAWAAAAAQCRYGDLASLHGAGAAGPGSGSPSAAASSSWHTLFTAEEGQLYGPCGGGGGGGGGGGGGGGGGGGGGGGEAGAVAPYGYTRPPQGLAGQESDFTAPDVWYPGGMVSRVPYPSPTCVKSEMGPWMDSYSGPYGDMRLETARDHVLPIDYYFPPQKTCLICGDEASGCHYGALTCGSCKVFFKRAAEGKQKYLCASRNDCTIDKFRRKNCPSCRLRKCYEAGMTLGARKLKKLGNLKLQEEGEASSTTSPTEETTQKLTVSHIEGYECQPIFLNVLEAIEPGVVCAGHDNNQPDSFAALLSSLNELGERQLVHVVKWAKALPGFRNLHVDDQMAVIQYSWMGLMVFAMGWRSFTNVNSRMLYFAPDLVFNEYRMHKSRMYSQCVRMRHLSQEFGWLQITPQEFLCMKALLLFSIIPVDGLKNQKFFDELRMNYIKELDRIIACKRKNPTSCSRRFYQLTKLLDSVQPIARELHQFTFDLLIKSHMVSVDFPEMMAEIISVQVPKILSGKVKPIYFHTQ
In short: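 Screening used 2,000 AR-bla HEK293 cells per well, treated 16 h at 37C with test compounds in DMSO alongside positive and DMSO-only controls; beta-lactamase activity was then read by LiveBLAzer B/G FRET fluorescence after 2 h at room temperature.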

[14] = qHTS assay to identify small molecule antagonists of the thyroid receptor (TR) signaling pathway - cell viability counter screen (AID 743064); conditions: GH3.TRE-Luc viability, CellTiter-Fluor, 24 h; activity change, negative = cytotoxic: at 70.3 µM (top of the series) unless noted; also: nearly all actives have a fitted effect of over 50% in size
In short: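 Viability of T3-stimulated (1 nM final) GH3.TRE-Luc cells is measured by CellTiter-Fluor fluorescence after 23.5 h compound exposure at 37 °C plus 30 min reagent incubation.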

Aromatase (Homo sapiens) = Aromatase (Homo sapiens) (UniProt P11511); assay: qHTS assay to identify aromatase inhibitors (AID 743083); also: nearly all actives have a fitted effect of over 55% in size
UniProt P11511, sequence (P11511 whole entry, looked up): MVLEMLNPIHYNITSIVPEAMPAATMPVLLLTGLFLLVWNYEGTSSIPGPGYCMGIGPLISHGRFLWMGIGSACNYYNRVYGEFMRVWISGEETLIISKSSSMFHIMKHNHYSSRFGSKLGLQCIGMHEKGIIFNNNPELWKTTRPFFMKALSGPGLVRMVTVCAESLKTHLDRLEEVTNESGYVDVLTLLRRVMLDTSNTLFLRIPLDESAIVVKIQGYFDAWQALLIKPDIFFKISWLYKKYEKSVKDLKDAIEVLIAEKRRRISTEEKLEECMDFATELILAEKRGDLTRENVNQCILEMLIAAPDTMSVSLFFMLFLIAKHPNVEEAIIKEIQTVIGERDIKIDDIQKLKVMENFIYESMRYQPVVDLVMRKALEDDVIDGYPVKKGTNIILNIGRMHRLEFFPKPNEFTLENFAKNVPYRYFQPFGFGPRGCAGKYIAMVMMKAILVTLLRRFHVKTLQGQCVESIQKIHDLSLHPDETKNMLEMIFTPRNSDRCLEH

[15] = qHTS assay to identify aromatase inhibitors - cell viability counter screen (AID 743084); conditions: MCF-7 aro ERE viability, CellTiter-Fluor, 24 h; activity change, negative = cytotoxicity: at 70.3 µM (top of the series) unless noted;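 also: cells stimulated with testosterone during compound exposure; nearly all actives have a fitted effect of over 55% in size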
[16] = target: Peroxisome proliferator-activated receptor gamma (Homo sapiens) (UniProt P37231); assay: qHTS assay to identify small molecule agonists of the peroxisome proliferator-activated receptor gamma (PPARg) signaling pathway (AID 743094; active = well fitted activation curve with a large enough effect in the signal ratio in the repeat runs, not every such curve was filed as active; inconclusive = weak or mixed curves, or effect the other way; inactive = no such curve, though single readings can be large or run the other way; the % refers to the signal ratio); conditions: HEK293H PPARg-UAS-bla, beta-lactamase FRET ratio, 17 h; activation: at 57 µM (top of the series) unless noted
UniProt P37231, sequence (P37231 whole entry, looked up): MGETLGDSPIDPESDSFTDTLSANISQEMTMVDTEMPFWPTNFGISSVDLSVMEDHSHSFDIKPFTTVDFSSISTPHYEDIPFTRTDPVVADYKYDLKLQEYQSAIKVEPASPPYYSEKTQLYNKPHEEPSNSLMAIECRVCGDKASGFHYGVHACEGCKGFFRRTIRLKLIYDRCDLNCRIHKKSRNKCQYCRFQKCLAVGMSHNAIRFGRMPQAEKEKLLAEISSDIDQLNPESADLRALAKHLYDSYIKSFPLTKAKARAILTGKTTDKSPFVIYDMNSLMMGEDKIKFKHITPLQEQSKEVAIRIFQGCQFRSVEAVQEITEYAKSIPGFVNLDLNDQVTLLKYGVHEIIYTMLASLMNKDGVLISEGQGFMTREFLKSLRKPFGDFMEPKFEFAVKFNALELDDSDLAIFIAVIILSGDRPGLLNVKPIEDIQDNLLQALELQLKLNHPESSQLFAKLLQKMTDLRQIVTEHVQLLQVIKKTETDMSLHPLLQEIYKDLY
In short: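 Quantitative HTS agonist mode: stable HEK293H line with UAS-beta-lactamase reporter under PPARg control, 17 h compound exposure at 37C, fluorescence after 1 h FRET substrate loading at room temperature.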

[17] = qHTS assay for identifying genotoxic compounds that show differential cytotoxicity against isogenic chicken DT40 cell lines with known DNA damage response pathways - wild type cell line (AID 743012); conditions: DT40 wild type chicken cells viability, CellTiter-Glo, 40 h; activity change, negative = cytotoxicity: at 68.4 µM (top of the series) unless noted; also: nearly all actives have a fitted effect of over 60% in size
In short: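 Cells (DT40 wild type, 300/well) are treated with DMSO-dissolved compounds after a ~0.5 h pre-incubation and kept 40 h at 37 C/5% CO2. Viability is then measured by CellTiter-Glo luminescence following 30 min at room temperature.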

[18] = qHTS assay to identify small molecule antagonists of the androgen receptor (AR) signaling pathway using the MDA cell line - cell viability counter screen (AID 743041; also: nearly all actives have a fitted effect of over 45% in size); conditions: MDA-kb2 viability, CellTiter-Fluor, 16 h, cells co-treated with R1881 androgen agonist; viability change, negative = cytotoxic: at 70.3 µM (top of the series)
In short: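 MDA-kb2 AR-luc human breast carcinoma cells (MMTV-luciferase, AR/GR responsive) were treated with compounds plus R1881 agonist for 16 h at 37 °C. Viability was read as CellTiter-Fluor fluorescence in the same wells as the reporter assay.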

[19] = target: Androgen receptor (Homo sapiens) (UniProt P10275); assay: qHTS assay to identify small molecule antagonists of the androgen receptor (AR) signaling pathway using the MDA cell line (AID 743042; also: nearly all actives have a fitted effect of over 55% in size)
In short: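 MDA-kb2 cells (human breast carcinoma, stably carrying an MMTV-luciferase reporter responsive to AR and GR) were plated at 3,000 cells/well and preincubated 5 hr at 37C, then given compound plus R1881 agonist for 16 h. ONE-Glo luminescence was read.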

[20] = qHTS assay to identify small molecule antagonists of the estrogen receptor alpha (ER-alpha) signaling pathway using the BG1 cell line (AID 743080; calls by dose curve;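 also: BG1 cells stimulated with 17beta-estradiol alongside compound; nearly all actives have a fitted effect of over 25% in size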); conditions: BG1Luc4E2 ERE-luciferase antagonist mode, luminescence; activity change, negative = inhibition: at 70.3 µM (top of the series) unless noted
In short: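 Luciferase inhibition measured with ONE-Glo after 30 min at RT in BG1Luc4E2 cells given test compounds and 17beta-estradiol for 21.5 h at 37 C; CellTiter-Fluor viability read in the same wells beforehand.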

[21] = qHTS assay to identify small molecule antagonists of the estrogen receptor alpha (ER-alpha) signaling pathway using the BG1 cell line - cell viability counter screen (AID 743081); conditions: BG1Luc4E2 viability, CellTiter-Fluor, 22 h; activity change, negative = cytotoxicity: at 70.3 µM (top of the series) unless noted;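 also: compound given together with 17beta-estradiol as the ER stimulus; nearly all actives have a fitted effect of over 45% in size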
[22] = qHTS assay to identify small molecule that activate the aryl hydrocarbon receptor (AhR) signaling pathway - cell viability counter screen (AID 743086); also: nearly all actives have a fitted effect of over 45% in size
In short: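 HepG2-AhR-luc (HG2L7.5c1) cells, 4000/well, were preincubated 5 h at 37C, exposed to compound in qHTS format for 24 hr at 37C, then given CellTiter-Fluor for 30 min; viability was read as fluorescence in the reporter wells.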
Potency is read from the fitted curve at half-maximal effect; tags tell the direction and shape of the fitted curve or compound fluorescence and quenching.

O=C1c2ccccc2C(=O)C1c1ccc(F)cc1
active: Potency [4] 28.2 µM | Potency [5] 12.6 µM
inconclusive: Potency [1] 23.7 µM [rising, partial curve, poor fit] | Potency [2] 0.0379 µM [rising, full curve, poor fit] | Potency [3] 26.6 µM [activator, partial curve, poor fit]

CC1=C(/C=C/C(C)=C/C=C/C(C)=C/C=C/C=C(C)/C=C/C=C(C)/C=C/C2=C(C)C[C@@H](O)CC2(C)C)C(C)(C)C[C@H](O)C1
inconclusive: Potency [7] 26.6 µM [activator, partial curve, poor fit] | Potency [8] 23.7 µM [falling, partial curve, poor fit] | Potency [9] 33.5 µM [cytotoxic, partial curve, poor fit] | Potency [10] 1.88 µM [activator, full curve] | Potency [12] 21.3 µM [cytotoxic, partial curve, poor fit] | Potency [13] 16.9 µM [rising, partial curve, poor fit] | Potency (Aromatase (Homo sapiens)) 33.5 µM [inhibitor, single point] | Potency [15] 33.5 µM [cytotoxic, single point] | Potency [3] 33.5 µM [activator, single point] | Potency [16] 21.3 µM [activator, partial curve] | Potency [4] 15.8 µM [activator, partial curve]
active: Potency [6] 29.8 µM | Potency [11] 23.9 µM | Potency [14] 29.8 µM

CC1(C)C(\C=C/C=C\C=C/C=C2/N(CCCCS(=O)(=O)O)c3ccc4ccccc4c3C2(C)C)=[N+](CCCCS(=O)(=O)[O-])c2ccc3ccccc3c21
inconclusive: Potency [6] 4.73 µM [rising, full curve] | Potency [8] 10.6 µM [falling, partial curve] | Potency [10] 10.6 µM [activator, full curve] | activity change, negative = inhibition [11] 12.7% | Potency [17] 29.8 µM [cytotoxic, single point] | Potency [13] 8.49 µM [inhibitor, partial curve, poor fit] | Potency [18] 29.8 µM [cytotoxic, single point] | Potency [19] 29.8 µM [inhibitor, partial curve, poor fit] | Potency [20] 26.6 µM [falling, partial curve, poor fit] | Potency [21] 29.8 µM [cytotoxic, partial curve] | Potency [15] 26.6 µM [cytotoxic, partial curve] | Potency [22] 29.8 µM [falling, partial curve] | Potency [4] 14.1 µM [activator, single point]
inactive: Potency [9]
active: Potency [14] 15 µM
